# Measurements taken from publication PMC4336329 (PLoS ONE, 2015).
# About 2,200 (0.71%) of roughly 310,000 compounds showed an effect of 50% or more. The effect is printed as a negative number. The list shows a part of the results.
# Target: human ether-à-go-go-related gene (hERG) potassium channel (human, UniProt Q12809)
# Assay: primary screen, population patch clamp on CHO cells stably expressing hERG
# Chain of human ether-à-go-go-related gene (hERG) potassium channel (Q12809 whole entry, looked up): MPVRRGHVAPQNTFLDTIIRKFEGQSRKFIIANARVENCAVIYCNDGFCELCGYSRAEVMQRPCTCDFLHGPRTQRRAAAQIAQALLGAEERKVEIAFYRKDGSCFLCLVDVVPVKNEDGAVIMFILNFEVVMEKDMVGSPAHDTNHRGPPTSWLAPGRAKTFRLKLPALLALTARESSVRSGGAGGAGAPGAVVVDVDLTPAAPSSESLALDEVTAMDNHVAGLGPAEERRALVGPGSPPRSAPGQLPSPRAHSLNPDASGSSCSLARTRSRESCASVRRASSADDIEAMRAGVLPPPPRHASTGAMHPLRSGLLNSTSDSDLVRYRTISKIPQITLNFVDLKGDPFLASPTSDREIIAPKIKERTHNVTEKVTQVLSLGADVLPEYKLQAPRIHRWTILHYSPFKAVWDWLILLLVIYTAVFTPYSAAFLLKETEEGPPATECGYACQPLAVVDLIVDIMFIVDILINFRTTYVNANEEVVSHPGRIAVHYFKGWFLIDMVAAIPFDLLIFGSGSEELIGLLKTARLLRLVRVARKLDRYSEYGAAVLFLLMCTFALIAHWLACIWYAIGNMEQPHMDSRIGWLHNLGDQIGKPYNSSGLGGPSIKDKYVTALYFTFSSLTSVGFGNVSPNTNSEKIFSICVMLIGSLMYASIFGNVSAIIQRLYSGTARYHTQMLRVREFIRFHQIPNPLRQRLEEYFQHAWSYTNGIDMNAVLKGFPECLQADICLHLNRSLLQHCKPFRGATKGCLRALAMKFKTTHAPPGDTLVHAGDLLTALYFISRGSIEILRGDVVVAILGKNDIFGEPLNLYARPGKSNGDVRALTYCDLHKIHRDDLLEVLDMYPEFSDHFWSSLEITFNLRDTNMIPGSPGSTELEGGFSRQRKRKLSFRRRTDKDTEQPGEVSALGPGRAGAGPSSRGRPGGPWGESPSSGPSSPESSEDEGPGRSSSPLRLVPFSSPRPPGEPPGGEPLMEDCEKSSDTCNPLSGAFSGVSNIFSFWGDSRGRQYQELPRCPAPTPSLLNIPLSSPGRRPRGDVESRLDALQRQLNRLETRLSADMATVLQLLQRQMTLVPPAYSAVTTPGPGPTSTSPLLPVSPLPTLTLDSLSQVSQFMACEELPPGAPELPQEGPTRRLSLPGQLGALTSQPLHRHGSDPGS
row,Structure (SMILES),"hERG current change (%, negative = inhibition) at 1uM [%]"
1,COc1cccc(C(=O)NC2CCN(CC(=O)NCc3ccccc3F)CC2)c1,11.9
2,Cc1n[nH]c(=S)n1/N=C/c1cccc(OCc2ccccc2)c1,20.1
3,Cl.O=C(Nc1ccc(Br)cn1)c1ccc(Br)s1,13.3
4,COC(=O)C1Cc2ccccc2CN1C(=O)CCl (centres unmarked),3.85
5,CCCCCN=C(N)N/N=C/c1c[nH]c2ccc(OC)cc12.O=C(O)/C=C\C(=O)O,4.57
6,CNC(=O)CSc1nnc(C2CC2)n1-c1ccccc1,7.01
7,O=C1c2ccccc2C(=O)N1c1ccccc1S(=O)C(F)(F)F (centres unmarked),10.1
8,CCOc1ccc(C)cc1S(=O)(=O)n1ccnc1,15.2
9,O=C(Oc1ccccc1C(=S)N1CCOCC1)c1cccc([N+](=O)[O-])c1,8.85
10,CN(C(=O)COC(=O)c1cc(S(=O)(=O)N(C)C)ccc1Cl)C1CCS(=O)(=O)C1 (centres unmarked),1.46
11,Cc1ccc(NC(=O)CN2CCC(NC(=O)Cc3ccccc3)CC2)c(C)c1,0.63
12,Cc1cc(C)c(NC(=O)Cn2ncc3ccccc32)c(C)c1,5.74
13,Cn1cnc([N+](=O)[O-])c1Nc1cccc(O)c1,9.65
14,O=C(NCC1CCCO1)c1ccccc1S(=O)(=O)c1ccc([N+](=O)[O-])cc1 (centres unmarked),13.2
15,Cc1ccc(NC(=O)CN(C)C(=O)Cc2ccc(Cl)cc2Cl)cc1,14.1
16,COc1ccc(-c2csc(NC(=O)CSC(C)C(=O)Nc3cc(C)on3)n2)cc1OC (centres unmarked),0.855
17,NC(=O)C1CCCN(C(=S)Nc2ccccc2)C1 (centres unmarked),8.2
18,O=C1Nc2ccc(Br)cc2/C1=C/C1CC=CCC1 (centres unmarked),-0.575
19,CCNc1nc(Oc2ccc(=O)n(-c3ccccc3)n2)nc(N2CCOCC2)n1,5.94
20,Cc1ccc(-n2c(SCC(=O)Nc3ccc(C(=O)O)cc3)nnc2-c2ccncc2)cc1,7.63
21,COc1cc(OC)cc(C(=O)NC(=S)NNC(=O)c2cnccn2)c1,5.19
22,Cc1ccc2cccc(OC(=O)N(C)c3ccccc3)c2n1,14.7
23,O=C(O)Cc1cn(-c2ccccc2)nc1-c1ccc(Cl)cc1,4.98

row,Structure (SMILES),"hERG current change (%, negative = inhibition) at 1uM [%]"
1,CCn1cc(C(=O)N2CCN(c3cccc(C)c3C)CC2)c(=O)c2ccc(C)nc21,-4.58
2,COc1ccc(N(C(=O)c2ccco2)S(=O)(=O)c2ccc(F)cc2)cc1,13.3
3,COCCNC(=O)/C(C#N)=C\c1ccc(CNS(=O)(=O)c2ccccc2)o1,22.8
4,CCn1nc(C)cc1-c1nnc(SCC(=O)Nc2ccccc2)n1CCCOC,13.1
5,Cc1cccc(Oc2ccccc2NC(=O)C2=COCCO2)c1,10.9
6,O=C(Nc1ccccc1)O[C@@H]1C[C@H]2CCC(=O)N3CC[C@@H](C1)[C@@H]23,4.55
7,O=C(Nc1cccc(-c2cn3ccccc3n2)c1)c1cnccn1,9.53
8,COc1ccc(S(=O)(=O)N2CCCCCC2)cc1N(C)S(=O)(=O)c1ccc(C)cc1,-3.15
9,O=C(NCCO)c1cc2c([nH]c3ccccc32)c(-c2ccccc2)n1,7.99
10,Cc1ccc2[nH]c(=O)c(C3C(C#N)=C(N)Oc4c3ccc3cccnc43)cc2c1 (centres unmarked),-0.46
11,O=C(CCC1CCN(Cc2ccc(C#CCCO)cc2)CC1)NC1CC1,-11.1
12,Cc1cc(C(F)(F)F)n2ncc(-c3cccc(Br)c3)c2n1,16.2
13,CCn1nc(C(=O)OCC(=O)c2ccc3c(c2)OCCO3)c2ccccc2c1=O,5.64
14,Cc1cccc(OCCCC(=O)Nc2ccc(N(C)C)cc2)c1,4.41
15,S=c1[nH]nc(COc2ccccc2)n1/N=C/c1ccc(Cl)c(Cl)c1,10.1
16,CS(=O)(=O)N1CCCC(C(=O)Nc2ccc3c(c2)OCCO3)C1 (centres unmarked),16.2
17,CCOC(=O)c1c(C)[nH]c(C(=O)COC(=O)C2CC2C)c1C (centres unmarked),2.87
18,CCOC(=O)N1CCN(C(=O)CN(C2CCCCC2)S(=O)(=O)c2ccc(C)cc2)CC1,-4.72
19,CC1(C)Oc2ccc(C(=O)NC3CC3)cc2N(CC(=O)N2CCOCC2)C1=O,8.6
20,COCCCNCC(=O)c1c(N)n(Cc2ccccc2)c(=O)n(C)c1=O.O=C(O)C(=O)O,3.64
21,Br.Cc1nc(C)c(-c2csc(Nc3cccc(O)c3)n2)s1,14.3
22,O=C(NCCc1ccccc1)c1ccc(-c2ccc(F)cc2)o1,0.0469
23,O=C(N/C(=C\c1ccco1)C(=O)N1CCCC1)c1ccccc1,14.4

row,Structure (SMILES),"hERG current change (%, negative = inhibition) at 1uM [%]"
1,COc1cc(C2CC(=O)Nc3c2c(=O)nc2c(C)cccn32)cc(OC)c1OC (centres unmarked),17.2
2,COc1ccc(C2=NOC(C(=O)Nc3ccc(C)cc3)C2)cc1OC (centres unmarked),1.79
3,Cc1cc(-c2ccc(Cl)cc2)n2ncnc2n1,6
4,O=[N+]([O-])c1cccc(NC(=S)N2CCc3ccccc32)c1,14.6
5,COc1ccc(NC(=O)c2cccc(Cl)c2)c[n+]1[O-],14
6,CCOC(=O)c1sc(=S)n(-c2cccc(C(F)(F)F)c2)c1SC,-1.95
7,COc1cccc(-c2c(C(=O)N/N=C/c3cccnc3)nnn2-c2nonc2N)c1,19.9
8,O=C(Cn1nnc2ccccc21)Nc1ccccc1[N+](=O)[O-],8.72
9,CCN(C(=O)COC(=O)c1cccnc1Nc1ccccc1F)C1CCS(=O)(=O)C1 (centres unmarked),4.96
10,Cn1ccnc1SCC(=O)c1ccc([N+](=O)[O-])cc1,-0.216
11,O=C(O)c1ccc(Cl)c(S(=O)(=O)N2CCC(Cc3ccccc3)CC2)c1,20.5
12,Cc1ccc(N(CC(=O)Nc2ccc(C)cc2C)S(=O)(=O)N2CCCC2)cc1,5.51
13,CCc1ccccc1NC(=O)NNC(=O)CCc1ccccc1,14.9
14,Cc1ccc(NC(=O)CCC(=O)c2cccs2)nc1,2.89
15,O=C(NCCN1C(=O)S/C(=C\c2cccs2)C1=O)c1ccc(=O)[nH]c1,7.58
16,Cc1[nH]c(=O)[nH]c(=O)c1S(=O)(=O)N1CCC(C(=O)NC(C)c2ccccc2)CC1 (centres unmarked),7.35
17,Cc1nc(CSc2ccc(Cl)cc2)cs1,11.8
18,CSc1ncccc1C(=O)Nc1nccs1,5.42
19,CC(=O)Nc1ccc(NC(=O)C2CCCN2C(=O)Nc2ccc(F)cc2)cc1 (centres unmarked),7.48
20,O=C1NC(c2cccc(Cl)c2)Nc2ccccc21 (centres unmarked),13.9
21,Cc1nn(C(=O)c2cc3sccc3[nH]2)c(C)c1C,13.6
22,COCCNC(=S)N1CCOCC1,7.12
23,Cc1cccc(C)c1-n1c(C)nn(CC#N)c1=O,14.2

row,Structure (SMILES),"hERG current change (%, negative = inhibition) at 1uM [%]"
1,CCn1cc(C(=O)NCC(OC)OC)c(=O)c2cc(S(=O)(=O)N3CCC(C)CC3)ccc21,16.9
2,O=C(c1ccccc1)N1CCN(C(=S)NCc2ccco2)CC1,2.1
3,Cc1ccc(C(=O)N2CCOCC2)cc1S(=O)(=O)N1CCCC1,5.51
4,CCOC(=O)N1CCN(c2cc3[nH]c(=S)[nH]c3cc2F)CC1,16.7
5,COc1cc(-c2nc3ccccn3c2/N=C/c2cc(OC)c(OC)c(OC)c2)ccc1O,1.51
6,CC(C)(C)OC(=O)N1CCC(c2cc(=O)n3[nH]c(-c4ccc(Cl)cc4)cc3n2)CC1,9.1
7,O=C(C1CC(=O)N(c2ccc(Cl)cc2)C1)N1CCOCC1 (centres unmarked),5.97
8,C/C(=N\S(=O)(=O)c1ccc(C)cc1)N1CCN(S(=O)(=O)c2ccccc2)C1C(C)C (centres unmarked),-8.4
9,COC(=O)CN1C(c2ccc(Cl)cc2)=Nc2ccc(Cl)cc2C1c1ccccc1 (centres unmarked),14.7
10,CCOCC(=O)OCC(=O)Nc1cc(OC)c([N+](=O)[O-])cc1C,9.89
11,CCOC(=O)Cn1cnc2sc(C(=O)OC)c(C)c2c1=O,8.73
12,O=C(/C=C/c1ccc(Cl)cc1Cl)Nc1ccncc1,7.43
13,COc1ccc(OCC(O)CNS(=O)(=O)c2ccc(C)cc2)cc1 (centres unmarked),13.8
14,c1ccc(-c2ccc(CN3C[C@@H]4C(c5ccccc5)C5(c6ccccc6)CC4(C5)[C@H]3c3ccccc3)cc2)cc1 (some centres unmarked),1.07
15,CCN1CCN(c2nc3ccccc3nc2C(C#N)S(=O)(=O)c2ccc(C)c(C)c2)CC1 (centres unmarked),-13
16,C=CCn1c(O)c(C(C)=NCc2cccnc2)c(=O)[nH]c1=O,-9.23
17,CS(=O)(=O)N(CC(=O)NCc1ccncc1)c1cc(Cl)cc(Cl)c1,-4.53
18,CCCCOC(=O)Nc1nc(CC(=O)OCC)cs1,-4.28
19,O=C(C1CCC1)N1CCc2cc(S(=O)(=O)NCCN3CCN(c4ccccc4F)CC3)ccc21,3.71
20,Cc1ccnc(NS(=O)(=O)c2ccc(N3C(=O)c4c(Cl)c(Cl)c(Cl)c(Cl)c4C3=O)cc2)n1,7.76
